# Experimental data reported in ChEMBL document CHEMBL5308541, “MAIP: An Open-Source Tool to Enrich High-Throughput Screening Output and Identify Novel, Druglike Molecules with Antimalarial Activity” (ACS Med Chem Lett, 2023).
# Among all 150,000 compounds or so, about 540 (0.36%) showed an effect of 50% or more. The list shows a part of the results.
# Test system: Plasmodium falciparum
# Assay: Primary screen in NF54 nanoGlo assay, in single point, at 2uM, 72h; a lower Z score goes with more inhibition
# Assay type: functional, Erythrocyte
# Details: timepoint 72 hour
Compound,% Inhibition,Z score
c1ccc(-c2nc3c(c(NCc4ccc5cc[nH]c5c4)n2)CCNC3)nc1,-7%,1.07
CN(C)S(=O)(=O)CC1COCC1NC(=O)c1ccc2[nH]ccc2c1 (stereo unspecified),5%,-1.1
CNc1cc(-c2noc(C3CCOC(C)C3)n2)c2ccccc2n1 (stereo unspecified),-13%,2.38
Cc1csc(=O)n1Cc1nnc(C(C)C)o1,-8%,1.5
O=C(Cc1cn2c(n1)CCCC2)Nc1ccc2sc(C(=O)O)cc2c1,3%,-0.51
O=C1NC(=O)N2CCN(S(=O)(=O)c3cc4c(cc3Br)OCCO4)CC12 (stereo unspecified),-4%,0.72
Cc1cc(NCc2cccc3cc[nH]c23)ccc1OCCN1CCCC1,-9%,1.54
C[C@@H](CCN1CCN(C2CC2)CC1)N1CCN(C2CC2)CC1,-2%,0.42
c1ccc(CO[C@@H]2CCC[C@H]2Nc2ccc3cc[nH]c3n2)cc1,2%,-0.29
c1nc(NCc2ccc3c(c2)OCCCO3)cc(N2CCCC2)n1,-12%,2.06
C[C@@H](c1cccc(-c2cc(F)c3nc(N)sc3c2)c1)N1CCCC1,-6%,0.93
Cc1cc2c(NCC[C@H]3CCCCN3C3CCCC3)ncnc2s1,6%,-1.26
c1ccc(-n2cc(CN3CCN(C4CCOCC4)CC3)c(-c3ccncc3)n2)cc1,1%,-0.21
CCC(C)C(NC(=O)OC(C)(C)C)C(=O)N(C)CCOc1ccccc1 (stereo unspecified),6%,-1.39
FC(F)(F)c1cc(N2CCC(Nc3cc(C4CCC4)ncn3)CC2)ncn1,4%,-0.85
Cc1ncccc1Oc1ncnc(NCCN2CCC[C@H](CO)C2)c1C,2%,-0.26
CC(C)CN(Cc1ccc(C#N)cc1)C(=O)CCc1cnn(C)n1,2%,-0.37
COc1ccc2oc([C@H](C)NC(=O)c3cc4ccccc4c(=O)n3C)c(C)c2c1,-4%,0.57
CC(C)CN1CCC(N[C@H]2CCN(CCc3ccccc3)C2)CC1,8%,-1.65
CCN(CCN1CCCCCC1)C(=O)c1cccc(-c2cccc(O)n2)c1,0%,-0.05
CCN(Cc1ccc2c(c1)OCO2)C(=O)c1c(C)oc2ccc(OC)cc12,-5%,1.12
Nc1nc(NCc2ccc(NC(=O)c3cccnc3)cc2)nc2ccccc12,-3%,0.58
Cn1c(CN2CCN(C3CCCC3)CC2)nc2c1c(=O)[nH]c(=O)n2C,-6%,0.97
